Reference: patent US11932625B2, “Inhibitors of cyclin-dependent kinase 12 (CDK12) and uses thereof” (Dana-Farber Cancer Institute, Inc., priority 2016, dated 2024)

Key:
Jurkat cells = assay: Anti-proliferation activity on Jurkat cells ([…] GLO); assay type: cell-based; details: Homo sapiens, 72 hours, read-out: IC50 (nM) Jurkat Cell
Procedure: (§1) Select compounds described herein were evaluated for structure-activity analyses. Exemplary results of the IC50 values of exemplary compound BSJ-01-175-1 on other CDK kinases from an Invitrogen biochemical assay are shown in Table 1. In vitro kinase assays were performed by Life Technologies in duplicate at an ATP concentration=Km for each kinase. The IC50 on Jurkat cell is from an anti-proliferaction assay; IC50 on CDK2, CDK7 and CDK9 is from a biochemical kinase inhibition assay from Life technology.
Assay of Anti-Proliferation Activity on Jurkat Cells
Jurkat cells were plated at 30,000 cells/well and treated with a titration of compounds indicated. Cells were allowed to grow for 72 hours. Cells were assayed using […] GLO (Promega) to determine cell viability by measuring the amount of ATP present, which is an indicator of cell metabolic activity. Results are graphedcalculated as relative as luminescence as compared to DMSOP=.cent values. Curves were generated using PRISM and an IC50 value was determined.

CDK9/cyclin T1 = target: T1, CDK9/cyclin T1 (Homo sapiens, UniProt P50750); assay: Invitrogen/Life Technologies biochemical kinase inhibition assay; details: ATP concentration = Km, duplicate; read-out: IC50 (nM) CDK9/Cyclin T1
T1 construct: purchased Life Technologies (Invitrogen)
Procedure: as §1

CDK2/cyclin A = target: T2, CDK2/cyclin A (Homo sapiens, UniProt P24941); assay: as above; details: ATP concentration = Km, duplicate; read-out: IC50 (nM) CDK2/Cyclin A
T2 construct: purchased Life Technologies (Invitrogen)
Procedure: as §1

CDK7/cyclin H/MNAT1 = target: T3, CDK7/cyclin H/MNAT1 (Homo sapiens, UniProt P50613); assay: as above; details: ATP concentration = Km, duplicate; read-out: IC50 (nM) CDK7/cyclin H/MNAT1
T3 construct: purchased Life Technologies (Invitrogen)
Procedure: as §1

T1 sequence (P50750 whole entry): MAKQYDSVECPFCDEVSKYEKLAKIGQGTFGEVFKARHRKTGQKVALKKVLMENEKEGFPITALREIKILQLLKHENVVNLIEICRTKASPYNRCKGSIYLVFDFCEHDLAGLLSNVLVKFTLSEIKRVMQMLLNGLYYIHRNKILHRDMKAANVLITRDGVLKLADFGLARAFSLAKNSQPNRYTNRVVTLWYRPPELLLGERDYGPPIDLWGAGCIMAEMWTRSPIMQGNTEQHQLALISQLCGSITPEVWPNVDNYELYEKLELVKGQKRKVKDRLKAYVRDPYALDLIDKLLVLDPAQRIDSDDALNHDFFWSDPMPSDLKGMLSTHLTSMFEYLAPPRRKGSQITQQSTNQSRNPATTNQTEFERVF
T1 sequence (O60563 whole entry partner): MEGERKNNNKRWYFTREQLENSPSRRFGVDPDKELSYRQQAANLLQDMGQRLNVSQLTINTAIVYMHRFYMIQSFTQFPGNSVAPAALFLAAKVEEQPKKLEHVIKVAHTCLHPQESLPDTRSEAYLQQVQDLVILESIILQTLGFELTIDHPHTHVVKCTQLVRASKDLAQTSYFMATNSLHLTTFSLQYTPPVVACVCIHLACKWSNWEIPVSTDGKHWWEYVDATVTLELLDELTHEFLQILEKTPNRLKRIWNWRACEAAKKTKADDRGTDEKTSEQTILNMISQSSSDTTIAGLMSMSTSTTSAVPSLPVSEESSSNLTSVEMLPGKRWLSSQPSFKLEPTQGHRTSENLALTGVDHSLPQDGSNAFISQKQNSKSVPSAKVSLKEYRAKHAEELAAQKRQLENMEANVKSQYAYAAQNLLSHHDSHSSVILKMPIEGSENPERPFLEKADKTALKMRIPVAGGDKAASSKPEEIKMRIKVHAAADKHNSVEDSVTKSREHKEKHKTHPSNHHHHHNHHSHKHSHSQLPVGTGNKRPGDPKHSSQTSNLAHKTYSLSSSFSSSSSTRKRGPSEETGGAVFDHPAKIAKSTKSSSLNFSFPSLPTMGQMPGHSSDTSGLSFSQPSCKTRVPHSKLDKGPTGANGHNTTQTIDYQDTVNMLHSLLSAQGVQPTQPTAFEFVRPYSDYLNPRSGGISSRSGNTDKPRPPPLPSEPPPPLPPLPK
T3 sequence (P50613 whole entry): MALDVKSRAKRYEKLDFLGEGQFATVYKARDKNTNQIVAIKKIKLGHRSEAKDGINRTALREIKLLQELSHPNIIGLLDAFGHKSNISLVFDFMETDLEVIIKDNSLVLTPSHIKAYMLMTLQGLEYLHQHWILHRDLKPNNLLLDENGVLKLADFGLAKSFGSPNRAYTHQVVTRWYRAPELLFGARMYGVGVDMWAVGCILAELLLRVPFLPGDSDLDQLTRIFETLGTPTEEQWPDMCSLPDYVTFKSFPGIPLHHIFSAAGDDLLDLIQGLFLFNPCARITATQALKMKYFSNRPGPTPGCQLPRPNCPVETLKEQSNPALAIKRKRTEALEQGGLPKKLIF
T3 sequence (P51946 whole entry partner): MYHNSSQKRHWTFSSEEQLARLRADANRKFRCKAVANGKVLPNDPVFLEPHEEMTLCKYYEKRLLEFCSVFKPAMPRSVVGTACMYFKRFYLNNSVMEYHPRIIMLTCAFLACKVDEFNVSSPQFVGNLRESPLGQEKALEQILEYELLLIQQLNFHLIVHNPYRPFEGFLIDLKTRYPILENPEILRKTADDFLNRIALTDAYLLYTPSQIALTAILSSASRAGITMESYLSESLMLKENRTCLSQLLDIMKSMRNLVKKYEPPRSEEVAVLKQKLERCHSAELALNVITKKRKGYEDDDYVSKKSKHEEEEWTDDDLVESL
T3 sequence (P51948 whole entry partner): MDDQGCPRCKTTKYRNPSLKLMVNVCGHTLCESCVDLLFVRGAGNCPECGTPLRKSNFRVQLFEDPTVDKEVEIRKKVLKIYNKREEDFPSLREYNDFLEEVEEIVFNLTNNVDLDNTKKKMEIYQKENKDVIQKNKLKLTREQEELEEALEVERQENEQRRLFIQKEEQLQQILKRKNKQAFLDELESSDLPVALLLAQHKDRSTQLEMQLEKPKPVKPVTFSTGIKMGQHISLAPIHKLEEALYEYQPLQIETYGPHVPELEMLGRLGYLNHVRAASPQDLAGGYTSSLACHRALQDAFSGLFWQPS

| SMILES | IC50 (Jurkat cells) [nM] | IC50 (CDK9/cyclin T1) [nM] | IC50 (CDK2/cyclin A) [nM] | IC50 (CDK7/cyclin H/MNAT1) [nM] |
| --- | --- | --- | --- | --- |
| CN(C)C/C=C/C(=O)Nc1ccc(C(=O)N2CCC[C@@H](Nc3ncc(Cl)c(-c4c[nH]c5ccccc45)n3)C2)nc1 [BSJ-01-202, (E)-N-(6-(3-(5-chloro-4-(1H-indol-3-yl)pyrimidin-2-ylamino)piperidine-1-carbonyl)pyridin-3-yl)-4-(dimethylamino)but-2-enamide] | 54.3 | 658 | 3870 |  |
| C=CC(=O)Nc1ccc(C(=O)N2CCCC(Nc3ncc(Br)c(-c4c[nH]c5ccccc45)n3)C2)nc1 (stereo not shown) [BSJ-02-057, N-(6-(3-(5-bromo-4-(1H-indol-3-yl)pyrimidin-2-ylamino)piperidine-1-carbonyl)pyridin-3-yl)acrylamide] |  | 505 | 2040 | 272 |
| CN(C)C/C=C/C(=O)Nc1ccc(C(=O)N2CCC[C@@H](Nc3ncc(Br)c(-c4c[nH]c5ccccc45)n3)C2)nc1 [BSJ-02-058, (E)-N-(6-(3-(5-bromo-4-(1H-indol-3-yl)pyrimidin-2-ylamino)piperidine-1-carbonyl)pyridin-3-yl)-4-(dimethylamino)but-2-enamide] |  | 734 | 3740 | 251 |
| CN(C)C/C=C/C(=O)Nc1ccc(N2CCC[C@@H](Nc3ncc(Cl)c(-c4c[nH]c5ccccc45)n3)C2)nc1 [BSJ-02-108, (R,E)-N-(6-(3-((5-chloro-4-(1H-indol-3-yl)pyrimidin-2-yl)amino)piperidin-1-yl)pyridin-3-yl)-4-(dimethylamino)but-2-enamide] |  | 87.7 | 492 | 74 |
| C=CC(=O)Nc1ccc(N2CCC[C@@H](Nc3ncc(Cl)c(-c4c[nH]c5ccccc45)n3)C2)nc1 [BSJ-02-109, (R)—N-(6-(3-((5-chloro-4-(1H-indol-3-yl)pyrimidin-2-yl)amino)piperidin-1-yl)pyridin-3-yl)acrylamide] | 11.2 | 121 | 1940 | 433 |
